Over roughly 3,600 compounds, “viability index relative to DMSO control” has its median near 0.81; the lowest 2% begin near 0.13. This is one part of the list.
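Note: 384-well serum-free SaLSSA: MitoTracker Red CMXRos staining with saponin lysis, high-content imaging, treated-well particle count divided by plate-mean count of DMSO wells.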

For the experiment, the system named is Plasmodium falciparum NF54 stage V gametocytes. In words: viability index relative to DMSO control (fraction); higher = less gametocyte killing. Particulars: 1.25 µM, incubation time: 72 h.
`COc1cccc(C(=O)NC(c2ccccc2OC)c2cc(Cl)c3cccnc3c2O)c1` (centres undefined) yielded a viability index of 0.963.
Under `O=C(Nc1ccccc1)C(=Cc1ccncc1)NC(=O)c1ccccc1` stands 0.75; under `CC[n+]1c(C=CN(C)c2ccccc2)sc2ccc(OC)cc21`, 0.645.
In turn, `CC(C)N(CCNc1ncnc2c1[nH]c1ccc(Cl)cc12)C(C)C` showed a viability index of 1.08.
The value for `CCCC(CCC)C(=O)Nc1ccc2c(c1)N(C(=O)CCCl)c1ccccc1CC2` was 0.717; that for `CC(=O)N(C1=C(N2CCOCC2)C(=O)c2ccccc2C1=O)c1cccc(Cl)c1` was 0.0385; that for `N#Cc1c2c(c(N3CCN(C4CCCCC4)CC3)n3c1nc1ccccc13)CCC2` was 1.03.
Under `Cc1nc(NCCCN(C)C)c2sc3nc4c(cc3c2n1)COC(C)(C)C4` stands 0.963; under `COc1ccc2nc(Nc3nc(-c4ccccn4)cs3)sc2c1`, 0.331; under `O=c1c2ccccc2[nH]c2ccc(I)cc12`, 0.904.
Under `CC1(C)CC(=O)C2=C(C1)Nc1ccccc1N(C(=O)Cc1ccccc1)C2c1ccc([N+](=O)[O-])s1` (centres undefined) stands 1.03; under `COc1cnc(-c2ccccn2)nc1NC(C)C`, 0.0307.
`CCOC(=O)c1c(C)n(-c2ccccc2)c2ccc(OC(=O)c3ccco3)cc12` showed a viability index of 0.725.
The value for `Cc1ccc(C(C(=O)NC2CCCCC2)N(C(=O)Cn2nnc3ccccc32)c2ccc(S(=O)(=O)NCC3CCCO3)cc2)o1` (centres undefined) was 1.13; that for `CCN(CC)CCCC(C)Nc1ccnc2cc3ccccc3cc12` (centres undefined) was 0.971; that for `CCOC(=O)C1=C(CC)NC2=C(C(=O)CC(C)(C)C2)C1c1ccc(Cl)cc1Cl` (centres undefined) was 0.764.
In turn, `O=C(Nc1ccc2oc(-c3ccc(I)cc3)nc2c1)c1ccc([N+](=O)[O-])o1` displayed a viability index of 0.0302.
The value for `CN(CCCNc1ccc(C(=O)Nc2ccc(C(F)(F)F)cc2)cc1[N+](=O)[O-])Cc1ccccc1` was 1.01; that for `CCCOC(=O)C1=C(C)NC2=C(C(=O)CC(c3ccc(OC)cc3)C2)C1c1ccc([N+](=O)[O-])cc1` (centres undefined) was 0.736; that for `CCOc1ccc(-n2nc(C(=O)NCCCN(C)Cc3ccccc3)c3ccccc3c2=O)cc1` was 0.871.
Under `COc1ccc(Cl)cc1NC(=O)CSC1=C(C#N)C(c2ccccc2)C(C(=O)Nc2ccccc2)=C(C)N1` (centres undefined) stands 0.798; under `CC(=O)N(C1=C(N2CCOCC2)C(=O)c2ccccc2C1=O)c1ccc(Br)cc1`, 0.408; under `CCN(CC)CCCC(C)Nc1cc(C=Cc2ccc([N+](=O)[O-])cc2)nc2ccc(OC)cc12` (centres undefined), 0.728.
Consider `CCOC(=O)c1ccc2nc3c(nc2c1)C(=O)c1ccccc1C3=O`, for which the viability index was found to be 0.359.
Under `COc1ccc(-c2cc(-c3ccccc3)nc(SCC(=O)N3c4ccccc4Sc4ccc(Cl)cc43)c2C#N)cc1` stands 1.11; under `CC(C)CCNC(=O)C1CSC(c2ccc(F)cc2)N1C(=O)c1ccc(Cl)cc1Cl` (centres undefined), 0.744; under `CCc1c(C#N)c(N)nc(SCC(=O)c2ccc(C)cc2C)c1C#N`, 0.53.
The value for `COc1ccc(C2NCCc3c2[nH]c2ccccc32)cc1CSc1nc2ccccc2[nH]1` (centres undefined) was 1.05; that for `COC(=O)c1[nH]c2ccc(Cl)cc2c1NC(=O)C(C)N1CCN(C2CCCCC2)CC1` (centres undefined) was 0.991.
`Cc1ccccc1Cn1cc(NC(=O)c2cc(-c3cccs3)on2)cn1` came in with a viability index of 0.968.
The value for `CN1CCN(C(c2ccco2)c2sc3ncnn3c2O)CC1` (centres undefined) was 0.711; that for `COc1ccc(C2=C(c3ccc(OC)cc3)C3(c4ccccc4)C(=O)C2(c2ccccc2)C2C(=O)N(c4ccc(OC)cc4[N+](=O)[O-])C(=O)C23)cc1` (centres undefined) was 0.781; that for `O=C(NCCc1ccc(Cl)cc1)C1CCCN(c2nnc(N3CCCC3=O)s2)C1` (centres undefined) was 1.16.
Under `CC(C)(C)CC(C)(C)c1ccc(O)c(CN2CCN(CCC#N)CC2)c1` stands 0.735; under `CCOc1c(Br)cc(C2C(C(=O)OC)=CN(C)C=C2C(=O)OC)cc1OC`, 0.697; under `O=C1C(Nc2ccc(F)cc2)=C(N2CCCCC2)C(=O)c2ccccc21`, 0.675.
Under `COc1ccc(C2CC(=O)C3=C(C2)NC(C)=C(C(=O)OC2CCCC2)C3c2ccccc2C)cc1OC` (centres undefined) stands 0.71; under `O=C(CSc1nc(-c2ccccc2Cl)ns1)Nc1ccc2c(c1)OCCO2`, 0.479; under `CCOc1cc(C2CC(=O)NC3=C2C(=O)CC(c2cc(OC)ccc2OC)C3)ccc1O` (centres undefined), 1.04.
Molecule `Cc1ccc(-c2c3c(nc4sc(C(=O)Nc5cccc(C)c5)c(N)c24)CCC3)cc1` came in with a viability index of 0.838.
Under `O=C(Nc1cc(Cl)cc(Cl)c1)C1C2C=CC3(O2)C1C(=O)N(CCC1=CCCCC1)C3C(=O)NC1CCCCC1` (centres undefined) stands 1.12; under `C[n+]1ccc(C=Cc2ccc(O)cc2)cc1`, 0.784; under `O=C(NCc1ccc(Cl)cc1)C(=O)NCc1ccccn1`, 0.702.
Under `CCn1c(=NC(=O)c2cc(=O)c3ccccc3o2)sc2c(OC)ccc(OC)c21` stands 0.917.
Take `O=C(/C=C/Nc1ccccc1NS(=O)(=O)c1ccc([N+](=O)[O-])cc1)c1ccccc1`: the viability index was 0.878.
The value for `C=CCSc1nc(Sc2ccc(Cl)cc2)c2sc3ccccc3c2n1` was 0.767; that for `CCN1CCN(c2cc(C)c3cc(NC(=O)c4ccc(F)c([N+](=O)[O-])c4)ccc3n2)CC1` was 1.08.
Under `CCN1C(=Cc2sc3ccccc3[n+]2CC)Sc2ccccc21` stands 0.918; under `O=C(c1cc2cc(Br)ccc2o1)N1CCc2c([nH]c3ccccc23)C1c1ccc(Cl)cc1` (centres undefined), 0.888.
For the molecule `CC(C)(C)c1ccc(Cn2nnc3c(O)nc(C4CCN(C(=O)c5ccccc5)CC4)nc32)cc1`, the viability index stood at 0.736.
Under `COc1ccc(C2CC(c3cccs3)=NN2C(=O)CSc2nnc(CNC(=O)c3cccs3)n2-c2cccc(C)c2)cc1` (centres undefined) stands 0.471; under `COc1cccc(C=NNC(=O)CSc2ccccc2C)c1O`, 1.04.
The value for `CCN1C(=O)N(CC(N)=O)C(=O)C12CCN(Cc1ccc(N(C)c3ccccc3)cc1)CC2` was 0.856.
The value for `Cc1ccc(-c2cc(C(F)(F)F)n3nc(C(=O)Nc4cccc(Cl)c4Cl)cc3n2)cc1` was 1.14.

For the origin of these results see the supplement of paper PMC4723716.
